Source: PubChem BioAssay (NCI)
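Exposure lasted 48 hours, with cells grown in 96-well plates and compounds tested at five concentrations. GI50 marks 50% less growth.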 The source holds more than one record for some entries. This is not the full list of results. There may be further records. For some assays here: The tests behind the records often covered other concentration ranges, not given here; a value can be the end of its range. For some assays here: The values listed for one entry are repeated measurements in other runs, samples, wells, individuals or studies. Records carry a tag for their origin. A, B and so on number the origins entry by entry.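 TGI marks complete inhibition of growth.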

Columns and labels:
Assay in all cases: NCI tumour cell line growth inhibition, 48 h
[1] = tested on: COLO 205 colon
[2] = tested on: HCT-116 colon
[3] = tested on: HL-60(TB) leukemia
[4] = tested on: MCF7 breast
[5] = tested on: NCI-H522 lung
[6] = tested on: ACHN renal
[7] = tested on: EKVX NSCLC
[8] = tested on: KM12 colon
[9] = tested on: MDA-MB-231 breast
[10] = tested on: OVCAR-8 ovarian
[11] = tested on: RXF 393 renal
[12] = tested on: SNB-19 CNS
[13] = tested on: SR leukemia
[14] = tested on: DU-145 prostate
[15] = tested on: A498 renal
[16] = tested on: HCC-2998 colon
[17] = tested on: SF-268 CNS
[18] = tested on: SF-295 CNS
[19] = tested on: SNB-75 CNS

CCC(C)C1NC(=O)C(NC(=O)C(CC(C)C)N(C)C(=O)[C@@H]2C=CCN2C(=O)[C@H](C)O)C(C)OC(=O)[C@H](Cc2ccc(OC)cc2)N(C)C(=O)[C@@H]2CCCN2C(=O)[C@H](CC(C)C)NC(=O)C(C)C(=O)[C@H](C(C)C)OC(=O)CC1O (some centres not stated)
TGI [1]: 3 nM and > 100 µM | TGI [2]: 12 nM and > 100 µM | TGI [3]: 32.2 nM and > 100 µM | TGI [4]: 23.1 nM and > 100 µM

O=C(NNC(=O)c1ccccc1S)c1ccccc1S
TGI [5]: 1.06 µM and > 100 µM

C#CC(F)(F)[C@]1(O)CC[C@H]2[C@@H]3CCC4=CC(=O)CCC4=C3[C@@H](c3ccc(C4CC4)cc3)C[C@@]21C
GI50 [6]: 20.9 nM [sample A, mean of 3 tests] and 1.33 µM [sample B, mean of 2 tests] | TGI [6]: 483 nM [sample A, mean of 3 tests] and > 28.5 µM [sample B, mean of 2 tests] | GI50 [7]: 382 nM [sample A, mean of 3 tests] and < 13.6 nM [sample B, mean of 2 tests] | TGI [7]: 1.73 µM [sample A, mean of 3 tests] and < 22.5 nM [sample B, mean of 2 tests] | TGI [8]: 99.8 nM [sample A, mean of 3 tests] and 1.16 µM [sample B, mean of 2 tests] | GI50 [9]: 17.8 nM [sample A, mean of 2 tests] and 993 nM [sample B, mean of 2 tests] | TGI [9]: 45.2 nM [sample A, mean of 2 tests] and 4.69 µM [sample B, mean of 2 tests] | GI50 [10]: 152 nM [sample A, mean of 3 tests] and 2 µM [sample B, mean of 2 tests] | TGI [10]: 4.32 µM [sample A, mean of 3 tests] and > 61 µM [sample B, mean of 2 tests] | GI50 [11]: 114 nM [sample A, mean of 3 tests] and 1.22 µM [sample B, mean of 2 tests] | TGI [12]: 5.02 µM [sample A, mean of 2 tests] and > 100 µM [sample B, mean of 2 tests] | GI50 [13]: 21.5 nM [sample A, 1 test] and 295 nM [sample B, 1 test] | TGI [13]: 107 nM [sample A, 1 test] and 3.03 µM [sample B, 1 test]

CC(C)NCCCNc1c2ccccc2nc2cccc([N+](=O)[O-])c12
TGI [14]: 39.9 nM and 13.4 µM | TGI [3]: 43.2 nM and > 100 µM | TGI [12]: 1.02 µM and 55.6 nM | TGI [13]: 1.28 nM and > 100 µM

COC(=O)N[C@H]1C=C[C@@H]2/C=C(C)/C=C/[C@@H](C)[C@H]([C@H](C)[C@H](O)[C@@H](C)NC(C)=O)OC(=O)/C=C/C=C(C)\C=C\[C@]2(C)C1
TGI [15]: 650 nM and 11.4 µM | GI50 [14]: 311 nM and 20.1 nM | GI50 [7]: 39 nM and 738 nM | GI50 [16]: 24.3 nM and 7.06 µM | TGI [9]: 7.1 nM and 5.5 µM | GI50 [17]: 696 nM and 36.8 nM | TGI [18]: 39.6 nM and 7.23 µM | GI50 [19]: 2.35 nM and 26.8 nM | TGI [19]: 41.1 nM and 3.22 µM

O=c1cc(/C=C/c2ccc(O)c(O)c2)cc(/C=C/c2ccc(O)c(O)c2)o1
TGI [5]: 50 µM and 4.29 µM
